Experimental data reported in PubChem BioAssay AID1240 (Sanford-Burnham Center for Chemical Genomics, 2008).
About 800 (1.6%) of roughly 50,000 compounds showed an effect of 50% or more. This is one part of the list.

Each compound was assayed against Bcl-2-like protein 10 (Homo sapiens) (UniProt Q9HD36) (assay: TR3 peptide-Bcl-B binding displacers, biochemical primary FP assay, phenotype converters (AID 1240;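 also: 0% = Bcl-B with tracer peptide and DMSO and 100% = tracer peptide lacking Bcl-B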)). Details: GST-Bcl-B / FITC-TR3 peptide fluorescence polarization; stronger effect = higher value; compound at 3.75 mg/L.
UniProt Q9HD36, sequence (Q9HD36 whole entry, looked up): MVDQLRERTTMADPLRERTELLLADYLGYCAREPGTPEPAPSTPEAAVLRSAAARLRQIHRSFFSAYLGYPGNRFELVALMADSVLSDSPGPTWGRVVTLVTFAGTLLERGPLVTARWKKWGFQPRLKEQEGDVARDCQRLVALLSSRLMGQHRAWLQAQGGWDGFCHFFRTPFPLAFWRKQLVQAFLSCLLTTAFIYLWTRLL

Q: Which displacement does the source give for `CCOC(=O)C(C)Oc1ccc2c(oc(=O)c3ccccc32)c1C` (configuration not stated) here?
A: 13.7%

Q: Which displacement does the source give for `CC(NS(=O)(=O)c1ccc(F)cc1)C1C2CC3CC(C2)CC1C3` (configuration not stated) here?
A: 3.6%

Q: With `Cc1cc(Br)ccc1N1C(=O)CCC1=O` as the compound, how does the displacement read?
A: -3.8%

Q: `CCC1C(=O)N=C(SCC(=O)Nc2ccccn2)NC1=O` (configuration not stated) was tested. Which displacement did it give?
A: 11%

Q: With `CC1=C(C(=O)Nc2ccc(Br)cc2)C(c2ccc([N+](=O)[O-])cc2)NC(=S)N1` (configuration not stated) as the compound, how does the displacement read?
A: 11.2%

Q: How did the displacement turn out when `CCCOc1ccc(N2C(=O)CC(Nc3ccc(C(=O)OC)cc3)C2=O)cc1` (configuration not stated) was run?
A: 7.8%

Q: `O=C(CSc1nc2ccc(N3C(=O)c4ccccc4C3=O)cc2s1)Nc1cccc([N+](=O)[O-])c1` was tested. Which displacement did it give?
A: -99.9%

Q: Which displacement does the source give for `NN1C(=O)/C(=C/c2ccc(Cl)cc2)N=C1c1ccccc1` here?
A: -5.3%

Q: How did the displacement turn out when `CC(C)C(=O)Nc1ccc(O)c(-c2nc3ccccc3s2)c1` was run?
A: -4.4%

Q: With `CCN1C(=O)/C(=C\c2ccc(-c3ccccc3C(=O)OC)o2)SC1=S` as the compound, how does the displacement read?
A: 5.6%

Q: Which displacement does the source give for `CC1=NN(C(=O)COc2ccccc2)C(O)(C(F)(F)F)C1` (configuration not stated) here?
A: -4%

Q: With `Cc1ccc(N=Cc2cccc([N+](=O)[O-])c2)cc1F` as the compound, how does the displacement read?
A: -7.8%

Q: How did the displacement turn out when `O=C(NC(CO)C(O)c1ccc([N+](=O)[O-])cc1)c1ccc2ccccc2n1` (configuration not stated) was run?
A: 13.7%

Q: For `O=C1CC(N2CCN(CCO)CC2)C(=O)N1c1ccc(Cl)cc1` (configuration not stated), which displacement is on record?
A: 4.5%

Q: For `O=C(CSc1nnnn1-c1ccccc1)c1ccc2c(c1)Cc1ccccc1-2`, which displacement is on record?
A: -26.7%

Q: Which displacement does the source give for `O=C(Nc1ccc(Oc2ccc(NC(=O)C(F)(F)F)cc2)cc1)C(F)(F)F` here?
A: 4.2%

Q: With `CCOC(=O)C(CCCCCOc1cc(C)ccc1C)C(=O)OCC` as the compound, how does the displacement read?
A: 10.8%

Q: With `O=C1NC(=Nc2ccc(O)cc2)S/C1=C\c1ccc(F)cc1` as the compound, how does the displacement read?
A: 7.7%

Q: `NS(=O)(=O)c1ccc(N2N=C(/C=C/c3ccc(F)cc3)CC2c2ccc(F)cc2)cc1` (configuration not stated) was tested. Which displacement did it give?
A: -57.8%

Q: Which displacement does the source give for `COc1ccc(Br)cc1C(=O)Nc1c(C)ccc2nsnc12` here?
A: -20.5%

Q: `O=C1/C(=C/c2ccc(Br)cc2)SC(=S)N1/N=C/c1ccc(Br)cc1` was tested. Which displacement did it give?
A: 39.3%

Q: Which displacement does the source give for `COc1ccc(C(NC(=O)c2ccccc2)c2ccc(OC)cc2)cc1` here?
A: -3%

Q: How did the displacement turn out when `CCn1cc(/C=C(/C#N)C(=O)Nc2ccc(Cl)cc2)c2ccccc21` was run?
A: 6.9%

Q: Which displacement does the source give for `Cc1ccc(C(=O)NC2CC(C)(C)NC(C)(C)C2)cc1[N+](=O)[O-]` here?
A: -3.2%

Q: Which displacement does the source give for `Cc1cc(C(=O)NC2CCSC2=O)ccc1[N+](=O)[O-]` (configuration not stated) here?
A: -2.7%

Q: For `COc1cc(NC(=O)c2nn3c(c2Br)NC(c2cccs2)CC3C(F)(F)F)c(OC)cc1Cl` (configuration not stated), which displacement is on record?
A: 6.7%

Q: Which displacement does the source give for `Cc1ccc(S(=O)(=O)N/N=C/C=C/c2ccc(N(C)C)cc2)cc1[N+](=O)[O-]` here?
A: -15.4%

Q: `COc1cc(C(=O)NC(NC(=S)Nc2ccc(Cl)cc2Cl)C(Cl)(Cl)Cl)cc(OC)c1OC` (configuration not stated) was tested. Which displacement did it give?
A: -2.4%

Q: With `O=C(Nc1ccc(F)c([N+](=O)[O-])c1)c1cccc2ccccc12` as the compound, how does the displacement read?
A: -4.6%

Q: `O=S(=O)(c1ccc(Br)cc1)N1CCN(c2ccccc2)CC1` was tested. Which displacement did it give?
A: 13.8%

Q: How did the displacement turn out when `CC(NC(=O)COc1ccccc1O)C1CC2CCC1C2` (configuration not stated) was run?
A: 9.7%

Q: For `OCC(CO)C(c1ccccc1)c1ccccc1`, which displacement is on record?
A: 15.1%

Q: With `O=C(NCCCn1ccnc1)NC1CCCCC1` as the compound, how does the displacement read?
A: -1.6%

Q: For `CCOC(=O)/C(=C\Nc1ccc(F)c(F)c1F)[N+](=O)[O-]`, which displacement is on record?
A: 15.4%

Q: For `Cc1c(Cl)cccc1NC(=O)c1cc2c(C)nn(-c3ccccc3)c2s1`, which displacement is on record?
A: -0.3%

Q: Which displacement does the source give for `CCC1=NN2C(=N)/C(=C/c3cc(Br)c(OCc4ccc(F)cc4)c(OC)c3)C(=O)N=C2S1` here?
A: 12.4%

Q: Which displacement does the source give for `COc1cc(Br)cc(/C=C2/C(=O)NN(c3ccccc3)C2=O)c1O` here?
A: 33.3%

Q: For `O=C(NNc1ccccc1)C(O)(Cc1ccccc1)Cc1ccccc1`, which displacement is on record?
A: -9.7%

Q: For `COc1ccc(C2CC(=O)C3=C(C2)Nc2ccccc2NC3c2ccccc2OCc2ccccc2)cc1OC` (configuration not stated), which displacement is on record?
A: -17%

Q: `Cc1ccc(NC(=O)c2ccc([N+](=O)[O-])o2)cc1C` was tested. Which displacement did it give?
A: -2.7%

Q: How did the displacement turn out when `O=C1CC(N2CCN(C3CC(=O)N(CCc4ccccc4)C3=O)CC2)C(=O)N1CCc1ccccc1` (configuration not stated) was run?
A: 2.8%

Q: `O=C1C2C3C=CC(C4CC34)C2C(=O)N1Cc1ccc(F)cc1` (configuration not stated) was tested. Which displacement did it give?
A: -8.1%

Q: For `CCCOc1ccc(Br)cc1/C=C(/C#N)c1nc2ccc(C)cc2[nH]1`, which displacement is on record?
A: 69.3%

Q: For `O=c1nc2cc3[nH]c4c(=O)c5ccccc5c4[nH]c3cc2n1`, which displacement is on record?
A: 23.5%

Q: How did the displacement turn out when `O=C(Oc1c(Br)cc(Br)cc1/C=N/NC(=O)c1ccccn1)c1ccc2c(c1)OCO2` was run?
A: 47.9%

Q: Which displacement does the source give for `Cc1ccc(C)c(COc2ccc3c4c(c(=O)oc3c2C)CCC4)c1` here?
A: 10.1%

Q: For `Cc1cccc(OCC(=O)Nc2cccc(C(=O)O)c2)c1C`, which displacement is on record?
A: 16.8%

Q: `COc1ccc(OC)c(NC(=S)NC(NC(=O)c2cccc(I)c2)C(Cl)(Cl)Cl)c1` (configuration not stated) was tested. Which displacement did it give?
A: 0%

Q: For `O=C(CSc1nnc(-c2ccco2)o1)Nc1ccc(F)cc1`, which displacement is on record?
A: -11.2%

Q: How did the displacement turn out when `O=C1C(=O)N(c2cccc(Cl)c2)C(c2ccccc2)/C1=C(\O)c1ccccc1` (configuration not stated) was run?
A: 1%

Q: With `O=C(Nc1ccc(S(=O)(=O)N2CCCCCC2)cc1)c1ccc(Cl)cc1Cl` as the compound, how does the displacement read?
A: 2.9%

Q: For `COc1cccc(NC(=O)C(=O)NCCN(C)C)c1`, which displacement is on record?
A: 4%

Q: How did the displacement turn out when `CCCOc1ccccc1/C=C1/C(=O)NN(c2ccc(C(=O)OCC)cc2)C1=O` was run?
A: -1.3%

Q: For `NS(=O)(=O)c1ccc(CNC(=O)c2ccc(Cl)cc2[N+](=O)[O-])cc1`, which displacement is on record?
A: -0.6%

Q: `COc1cc(C=C2C(=O)NC(=O)NC2=O)ccc1OCCOc1ccc([N+](=O)[O-])cc1` was tested. Which displacement did it give?
A: 15.5%

Q: `COc1ccc(C(=O)Nc2ccc3oc(-c4cc(Cl)c(OC)c(Cl)c4)nc3c2)cc1OC` was tested. Which displacement did it give?
A: -9.3%

Q: `COc1ccc(-n2cnc3sc(C)c(C)c3c2=O)cc1` was tested. Which displacement did it give?
A: 0.9%

Q: How did the displacement turn out when `O=[N+]([O-])c1cc(C=Nc2cccc3nsnc23)c(O)c2ccccc12` was run?
A: -1%

Q: How did the displacement turn out when `COc1ccc(/C=C(\NC(=O)c2ccccc2)C(=O)NN)cc1OC` was run?
A: -10.6%

Q: With `CCOC(=O)C(Nc1cccc(F)c1)c1ccccc1` (configuration not stated) as the compound, how does the displacement read?
A: 5.4%

Q: `Cc1ccc(N(CC(=O)Nc2c(C)cccc2C)S(=O)(=O)c2ccc(F)cc2)cc1` was tested. Which displacement did it give?
A: 10.2%

Q: Which displacement does the source give for `CC(=O)C1=C(O)C(=O)N(CC2CCCO2)C1c1ccc(Cl)cc1` (configuration not stated) here?
A: 1.3%

Q: Which displacement does the source give for `NS(=O)(=O)c1ccc(CNC2CC(=O)N(CCc3ccccc3)C2=O)cc1` (configuration not stated) here?
A: -2.3%

Q: With `COc1cc(NS(=O)(=O)c2ccc(NC(=O)c3c(F)cccc3F)cc2)ncn1` as the compound, how does the displacement read?
A: 14.5%

Q: Which displacement does the source give for `CCOc1cc(OCC)cc(C(=O)Nc2ccc(N(CC)CC)cc2)c1` here?
A: 3.5%

Q: Which displacement does the source give for `Cc1ccc2oc(-c3cccc(NC(=S)NC(=O)c4ccco4)c3C)nc2c1` here?
A: 5.4%

Q: Which displacement does the source give for `O=C(CCN1C(=O)/C(=C/c2ccccc2Cl)SC1=S)Nc1ncc(Cc2ccccc2Cl)s1` here?
A: 7.9%
